Scores with a large standard error are left out. Two further conditions of the source, in which the scores hardly spread, are not listed. Names with del lack the residues named; names with ins carry added residues between the positions named. For some of these results: How much ogerin was present is not stated here.

This is an account of results in the GPR68 mutational scans of Howard et al. (2025).

Sequences and labels used below:
B1: GPR68, Q15743 (parent)
chain: MGNITADNSSMSCTIDHTIHQTLAPVVYVTVLVVGFPANCLSLYFGYLQIKARNELGVYLCNLTVADLFYICSLPFWLQYVLQHDNWSHGDLSCQVCGILLYENIYISVGFLCCISVDRYLAVAHPFRFHQFRTLKAAVGVSVVIWAKELLTSIYFLMHEEVIEDENQHRVCFEHYPIQAWQRAINYYRFLVGFLFPICLLLASYQGILRAVRRSHGTQKSRKDQIQRLVLSTVVIFLACFLPYHVLLLVRSVWEASCDFAKGVFNAYHFSLLLTSFNCVADPVLYCFVSETTHRDLARLRGACLAFLTCSRTGRAREAYPLGAPEASGKSGAQGEEPELLTKLHPAFQTPNSPGSGGFPTGRLA

In data set [1] the parent is B1. The data set is described as follows: cAMP reporter score (Enrich2 score, wild type = 0); higher = more signal; HEK293T, FACS bins.
Data set [2] covers variants of B1. The data set is described as follows: surface expression score (Enrich2 score, wild type = 0); higher = more signal; HEK293T, FACS bins.

Take D165V: the cAMP reporter score is -0.274 in data set [1] (pH 5.5); -0.284 in data set [1] (pH 6); -0.693 in data set [1] (pH 6, modulator: ogerin); -1.08 in data set [1] (pH 6.5, modulator: ogerin). Besides, the surface expression score in data set [2] amounted to 0.806.

Consider D165N, for which the cAMP reporter score is -0.76 in data set [1] (pH 5.5); 0.438 in data set [1] (pH 6); -0.546 in data set [1] (pH 6, modulator: ogerin); -1.41 in data set [1] (pH 6.5, modulator: ogerin). For the same variant, in data set [2], the surface expression score was determined as 1.22.

In the case of D165G, the cAMP reporter score is -0.141 in data set [1] (pH 5.5); -0.358 in data set [1] (pH 6); -0.323 in data set [1] (pH 6, modulator: ogerin); -0.766 in data set [1] (pH 6.5, modulator: ogerin). In addition, the surface expression score in data set [2] came to 2.06.

As for E166_N167insG, the cAMP reporter score is -0.582 in data set [1] (pH 5.5); -0.554 in data set [1] (pH 6); -0.935 in data set [1] (pH 6, modulator: ogerin); -1.18 in data set [1] (pH 6.5, modulator: ogerin). The surface expression score in data set [2] was found to be 1.25.

For the variant N167_H169del, the cAMP reporter score in data set [1] (pH 5.5) was -0.751; in data set [1] (pH 6) it was 0.362; in data set [1] (pH 6, modulator: ogerin), -1.5; in data set [1] (pH 6.5, modulator: ogerin), -1.25. For the same variant, in data set [2], the surface expression score came to 0.88.

Regarding H175_Y176insGS, the cAMP reporter score was -2.11 in data set [1] (pH 5.5); -0.535 in data set [1] (pH 6); -0.156 in data set [1] (pH 6, modulator: ogerin); -0.413 in data set [1] (pH 6.5, modulator: ogerin). Moreover, in data set [2], the surface expression score came out at 0.056.

Turning to Q168del, the cAMP reporter score in data set [1] (pH 5.5) was -0.405; in data set [1] (pH 6), -0.831; in data set [1] (pH 6, modulator: ogerin), -0.57; in data set [1] (pH 6.5, modulator: ogerin) it was -1.49. The surface expression score in data set [2] is 0.573.

Consider N167del, for which the cAMP reporter score in data set [1] (pH 5.5) was -0.921; in data set [1] (pH 6) it was -0.97; in data set [1] (pH 6, modulator: ogerin), -0.569; in data set [1] (pH 6.5, modulator: ogerin), -0.987. The surface expression score in data set [2] stood at 0.209.

Take Q168_H169del: the cAMP reporter score in data set [1] (pH 5.5) is -1.5; in data set [1] (pH 6), -1.07; in data set [1] (pH 6, modulator: ogerin), -1.05; in data set [1] (pH 6.5, modulator: ogerin) it was -1.3. Also, the surface expression score in data set [2] was found to be 0.888.

Regarding D165_N167del, the cAMP reporter score in data set [1] (pH 5.5) is -1.52; in data set [1] (pH 6), -0.972; in data set [1] (pH 6, modulator: ogerin), -1.98; in data set [1] (pH 6.5, modulator: ogerin), -1.11. The surface expression score in data set [2] was determined as 1.4.

Regarding V171_C172del, the cAMP reporter score in data set [1] (pH 5.5) is -1.52; in data set [1] (pH 6, modulator: ogerin) it was -1.44; in data set [1] (pH 6.5, modulator: ogerin), -0.81. For the same variant, the surface expression score in data set [2] is -1.12.

Consider H175_P177del, for which the cAMP reporter score in data set [1] (pH 5.5) was -1.13; in data set [1] (pH 6), 0.038. Moreover, in data set [2], the surface expression score is -1.51.

Consider V171I, for which the cAMP reporter score is 0.069 in data set [1] (pH 5.5); 0.251 in data set [1] (pH 6); -0.435 in data set [1] (pH 6, modulator: ogerin); 0.384 in data set [1] (pH 6.5, modulator: ogerin). Besides, the surface expression score in data set [2] was -0.501.

With V171C, the cAMP reporter score in data set [1] (pH 5.5) is -2.69; in data set [1] (pH 6) it was -0.605; in data set [1] (pH 6.5, modulator: ogerin), -1.44. In addition, the surface expression score in data set [2] amounted to 0.476.

Turning to V171Q, the cAMP reporter score in data set [1] (pH 5.5) was -0.861; in data set [1] (pH 6), -1.81; in data set [1] (pH 6.5, modulator: ogerin) it was -0.489. Also, in data set [2], the surface expression score came out at 0.612.

With V171F, the cAMP reporter score in data set [1] (pH 5.5) was -0.722; in data set [1] (pH 6.5, modulator: ogerin) it was -0.504. The surface expression score in data set [2] was 0.315.

Consider V171W, for which the cAMP reporter score was -0.819 in data set [1] (pH 5.5); -1.49 in data set [1] (pH 6); -1.81 in data set [1] (pH 6, modulator: ogerin); -0.457 in data set [1] (pH 6.5, modulator: ogerin). The surface expression score in data set [2] stood at 0.319.

For the variant V171M, the cAMP reporter score is 0.125 in data set [1] (pH 5.5); -0.228 in data set [1] (pH 6); -0.118 in data set [1] (pH 6, modulator: ogerin); -1.07 in data set [1] (pH 6.5, modulator: ogerin). In addition, in data set [2], the surface expression score was found to be 1.04.

For the variant V171K, the cAMP reporter score in data set [1] (pH 5.5) is -0.718; in data set [1] (pH 6, modulator: ogerin), -0.635; in data set [1] (pH 6.5, modulator: ogerin), -0.737. In addition, the surface expression score in data set [2] is 0.374.

Take V171G: the cAMP reporter score in data set [1] (pH 5.5) was -1.37; in data set [1] (pH 6), -1.4; in data set [1] (pH 6, modulator: ogerin) it was -0.968; in data set [1] (pH 6.5, modulator: ogerin), -0.802. For the same variant, the surface expression score in data set [2] came out at 1.28.

For V171A, the cAMP reporter score is -1.56 in data set [1] (pH 5.5); -0.952 in data set [1] (pH 6); -0.825 in data set [1] (pH 6, modulator: ogerin); -1.4 in data set [1] (pH 6.5, modulator: ogerin). Besides, in data set [2], the surface expression score worked out at 0.277.

Turning to V171L, the cAMP reporter score in data set [1] (pH 5.5) was -0.002; in data set [1] (pH 6) it was -0.144; in data set [1] (pH 6, modulator: ogerin) it was 0.529; in data set [1] (pH 6.5, modulator: ogerin), 0.245. In addition, the surface expression score in data set [2] was 1.05.

Consider V171H, for which the cAMP reporter score was -0.628 in data set [1] (pH 5.5); -0.56 in data set [1] (pH 6); -0.867 in data set [1] (pH 6, modulator: ogerin); -1.26 in data set [1] (pH 6.5, modulator: ogerin). The surface expression score in data set [2] is 0.345.

For the variant V171P, the cAMP reporter score in data set [1] (pH 5.5) is -1.14; in data set [1] (pH 6), -0.372; in data set [1] (pH 6, modulator: ogerin), -1.9; in data set [1] (pH 6.5, modulator: ogerin), -1.01. In addition, the surface expression score in data set [2] was -0.123.

V171Y: the cAMP reporter score in data set [1] (pH 5.5) is -0.917; in data set [1] (pH 6), -1.45; in data set [1] (pH 6, modulator: ogerin), -1.65; in data set [1] (pH 6.5, modulator: ogerin) it was -0.791. The surface expression score in data set [2] was -0.231.

With V171N, the cAMP reporter score in data set [1] (pH 5.5) is -0.337; in data set [1] (pH 6), -1.1; in data set [1] (pH 6, modulator: ogerin), -1.75; in data set [1] (pH 6.5, modulator: ogerin), -1.05. In addition, in data set [2], the surface expression score is -0.156.

Turning to V171S, the cAMP reporter score in data set [1] (pH 5.5) is -0.623; in data set [1] (pH 6) it was -0.726; in data set [1] (pH 6, modulator: ogerin) it was -0.697; in data set [1] (pH 6.5, modulator: ogerin), -0.737. The surface expression score in data set [2] was -0.611.

Consider V171E, for which the cAMP reporter score in data set [1] (pH 5.5) is -0.404; in data set [1] (pH 6, modulator: ogerin), -1.06.

On to V171R, for which the cAMP reporter score in data set [1] (pH 5.5) is 0.589; in data set [1] (pH 6) it was -0.145; in data set [1] (pH 6, modulator: ogerin) it was 0.462; in data set [1] (pH 6.5, modulator: ogerin) it was 2.06. For the same variant, the surface expression score in data set [2] came out at 0.814.

In the case of E174R, the cAMP reporter score in data set [1] (pH 5.5) is -0.943; in data set [1] (pH 6) it was -0.849; in data set [1] (pH 6.5, modulator: ogerin), -0.39. In addition, the surface expression score in data set [2] was -0.45.

Turning to E174P, the cAMP reporter score in data set [1] (pH 5.5) was -0.004; in data set [1] (pH 6), 0.277; in data set [1] (pH 6, modulator: ogerin), -0.293; in data set [1] (pH 6.5, modulator: ogerin) it was -0.829. For the same variant, the surface expression score in data set [2] was -0.517.

E174I: the cAMP reporter score in data set [1] (pH 5.5) was -1.82; in data set [1] (pH 6), -2.19; in data set [1] (pH 6, modulator: ogerin), -1.82; in data set [1] (pH 6.5, modulator: ogerin) it was -1.52. Moreover, the surface expression score in data set [2] was -0.568.
